The supplement of paper PMC7826260
The list shows a part of the results. Cleavage of a single-stranded DNA pool by Rep nickase domains was read by sequencing (3 µM enzyme, 1 h, 37 °C); shown is the middle of each 90-letter strand. A value is the log2 ratio of uncut reads to the pool without enzyme; uncut sequences lie near 0, cut ones below; no hit call is given. The scaling is to total reads; where an enzyme cuts many sequences, the uncut ones exceed 0.

Legend:
Experiment in all cases: uncleaved DNA left, log2 of reads against the no-enzyme library (log2 ratio); higher = less cleavage (more negative = more Rep cleavage of the k-mer); sequences stand for … in CTCGTCCG…ACCGGAGA
[1] = system: T1, Rep nickase domain of Muscovy duck circovirus
T1 sequence (protein, residues 1-111, tag omitted): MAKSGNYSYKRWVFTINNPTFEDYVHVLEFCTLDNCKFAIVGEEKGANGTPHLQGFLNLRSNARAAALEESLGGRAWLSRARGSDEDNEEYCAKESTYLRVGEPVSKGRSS
Procedure: (§1)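 A pool of 90-nt single-stranded DNAs with seven random bases just before the constant AC of the nick site (name = the seven bases) was cut by 3 µM recombinant His6-SUMO-tagged Rep nickase domain (300 nM DNA, 50 mM HEPES pH 8.0, 50 mM NaCl, 1 mM MnCl2, 1 h, 37 °C, three replicates). Uncut DNA was amplified and sequenced.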

[2] = system: T2, Rep nickase domain of banana bunchy top virus
T2 sequence (protein, residues 1-94, tag omitted): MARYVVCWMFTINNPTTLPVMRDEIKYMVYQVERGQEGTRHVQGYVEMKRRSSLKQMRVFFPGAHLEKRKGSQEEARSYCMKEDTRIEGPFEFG
Procedure: as §1

[3] = system: T3, Rep nickase domain of cabbage leaf curl virus
T3 sequence (protein, residues 1-116, tag omitted): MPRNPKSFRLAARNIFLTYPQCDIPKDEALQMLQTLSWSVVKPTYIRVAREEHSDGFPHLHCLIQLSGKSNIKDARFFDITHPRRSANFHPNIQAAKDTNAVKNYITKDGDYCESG
Procedure: as §1

[4] = system: T4, Rep nickase domain of chickpea chlorotic dwarf virus
T4 sequence (protein, residues 1-124, tag omitted): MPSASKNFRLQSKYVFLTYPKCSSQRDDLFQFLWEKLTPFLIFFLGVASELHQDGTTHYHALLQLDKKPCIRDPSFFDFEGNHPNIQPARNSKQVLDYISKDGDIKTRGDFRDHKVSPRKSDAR
Procedure: as §1

[5] = system: T5, Rep nickase domain of faba bean necrotic yellows virus
T5 sequence (protein, residues 1-98, tag omitted): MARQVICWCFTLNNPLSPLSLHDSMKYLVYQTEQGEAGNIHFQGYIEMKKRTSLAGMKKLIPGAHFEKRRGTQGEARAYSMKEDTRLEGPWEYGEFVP
Procedure: as §1

[6] = system: T6, Rep nickase domain of maize striate mosaic virus
T6 sequence (protein, residues 1-117, tag omitted): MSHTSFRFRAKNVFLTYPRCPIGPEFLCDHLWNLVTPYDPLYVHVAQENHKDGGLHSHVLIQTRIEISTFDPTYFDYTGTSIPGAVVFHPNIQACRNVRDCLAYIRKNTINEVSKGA
Procedure: as §1

[7] = system: T7, Rep nickase domain of porcine circovirus 2
T7 sequence (protein, residues 2-116, tag omitted): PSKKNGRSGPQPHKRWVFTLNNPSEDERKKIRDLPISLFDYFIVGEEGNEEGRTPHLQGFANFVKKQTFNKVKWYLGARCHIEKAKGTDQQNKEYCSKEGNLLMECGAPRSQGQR
Procedure: as §1

[8] = system: T8, Rep nickase domain of tomato yellow leaf curl virus
T8 sequence (protein, residues 1-136, tag omitted): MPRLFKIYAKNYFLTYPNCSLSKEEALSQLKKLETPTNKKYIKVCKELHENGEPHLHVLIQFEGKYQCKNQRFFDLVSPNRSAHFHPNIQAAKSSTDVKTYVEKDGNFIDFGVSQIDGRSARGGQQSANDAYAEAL
Procedure: as §1

[9] = system: T9, Rep nickase domain of wheat dwarf virus
T9 sequence (protein, residues 1-137, tag omitted): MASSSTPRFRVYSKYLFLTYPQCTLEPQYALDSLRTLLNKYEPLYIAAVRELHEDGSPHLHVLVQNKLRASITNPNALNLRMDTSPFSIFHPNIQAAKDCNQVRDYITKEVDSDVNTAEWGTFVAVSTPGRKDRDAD
Procedure: as §1

Sequence | uncleaved DNA left (log2) [1] | uncleaved DNA left (log2) [2] | uncleaved DNA left (log2) [3] | uncleaved DNA left (log2) [4] | uncleaved DNA left (log2) [5] | uncleaved DNA left (log2) [6] | uncleaved DNA left (log2) [7] | uncleaved DNA left (log2) [8] | uncleaved DNA left (log2) [9]
GTGGGCC | 0.0544 | 0.0595 | 0.48 | 1.09 | -0.0403 | 1.93 | 0.134 | -0.0608 | -0.00548
GACGTCA | 0.0702 | 0.0957 | 0.365 | -0.000577 | 0.113 | 0.779 | 0.0152 | -0.0246 | 0.152
ACGACAC | -0.0653 | 0.000655 | 0.00519 | 0.295 | 0.00387 | -0.0972 | 0.115 | 0.0698 | 0.0278
ATTACCT | -0.235 | -0.11 | -0.224 | -2.7 | -0.0226 | -0.389 | -2.78 | -0.0673 | 0.0948
GATGATC | -0.0275 | -0.0834 | 0.135 | 0.459 | -0.0861 | 0.702 | 0.0887 | -0.0928 | -0.0798
CACAAAC | 0.111 | -0.057 | 0.00568 | -0.544 | 0.165 | -0.751 | 0.19 | -0.000788 | 0.156
GCAACCA | -0.101 | 0.131 | 0.0427 | -1.11 | -0.045 | -0.045 | -0.64 | 0.0393 | 0.148
TGTAAGA | -0.0138 | -0.0305 | 0.0781 | 0.00365 | 0.0591 | -0.728 | 0.0581 | 0.0375 | -0.0405
CCTCGTT | -0.0794 | -0.21 | -0.331 | -1.59 | -0.175 | -0.727 | -0.414 | -0.33 | -0.153
ACAATAT | 0.129 | 0.219 | -0.0268 | -1.09 | 0.0517 | -0.617 | 0.059 | -0.0161 | 0.132
AAATGCC | 0.0358 | 0.025 | -1.62 | -1.89 | 0.0879 | -1.45 | 0.000454 | 0.035 | -0.123
CGGCGCA | -0.119 | -0.0163 | -0.0899 | 0.341 | -0.0887 | 0.693 | -0.015 | -0.032 | -0.129
GTTCTCG | 0.0199 | 0.0396 | -0.167 | -0.283 | 0.0282 | -0.614 | 0.0617 | -0.0183 | -0.00784
CGCTCGC | -0.0523 | 0.0247 | -0.204 | -0.534 | 0.0569 | -0.726 | 0.0867 | -0.116 | 0.0451
GCACATC | 0.0961 | 0.0102 | 0.0936 | 0.715 | -0.115 | -0.079 | 0.109 | -0.0702 | 0.00998
TGGTCCA | -0.0495 | 0.121 | 0.238 | 0.093 | -0.0519 | 0.822 | -0.152 | 0.121 | 0.106
GCGAGCC | 0.0853 | 0.0592 | 0.0565 | 0.447 | -0.00086 | 0.115 | -0.313 | 0.0931 | 0.0809
GCTACGA | 0.0888 | -0.0124 | 0.0411 | -0.0412 | -0.13 | -0.505 | 0.0518 | -0.0976 | 0.0414
TAGTCTT | -3.39 | -3.31 | -3.41 | -3.03 | -3.57 | -0.555 | -3.94 | 0.0481 | -1.52
GGACGCT | -0.0796 | -0.0034 | 0.628 | 1.44 | -0.191 | 1.98 | 0.0187 | -0.115 | 0.0399
AAAGACT | 0.19 | 0.0131 | 0.0295 | -0.501 | 0.0672 | 1.4 | 0.123 | -0.0402 | 0.142
TAGGAAT | -0.0734 | 0.0294 | 0.256 | 1.28 | -0.0129 | 1.62 | -0.309 | 0.0466 | 0.0991
TGCGTCG | 0.0696 | -0.123 | -0.382 | -0.529 | -0.0696 | -0.759 | 0.139 | -0.145 | -0.0714
AAATAAT | -4.09 | -1.13 | -4.16 | -3.59 | -0.314 | -3.4 | -4.13 | -1.1 | -3.97
ATCCCAT | -0.0408 | 0.018 | -0.103 | -0.585 | -0.00543 | -0.484 | -0.142 | 0.042 | -0.0333
AAAAAAT | -0.115 | -0.0454 | -1.49 | -2.5 | -0.0475 | -0.392 | -1.06 | -0.224 | -0.45
TTGGGTT | 0.0974 | -0.18 | 0.0557 | -0.08 | -0.0209 | 0.504 | -0.0811 | -0.117 | -0.129
GCACGCA | -0.115 | -0.0327 | -0.324 | -0.183 | -0.102 | -0.539 | -0.0789 | -0.138 | -0.174
CAGACAC | -0.0362 | 0.137 | 0.199 | 0.557 | -0.000532 | 0.453 | 0.016 | 0.0698 | 0.0949
CATTCCT | -3.39 | -3.23 | -0.287 | -2.96 | -0.185 | -0.749 | -3.53 | -0.00964 | -0.162
